In paper PMC12136788:
Where a chain is given by its changes, count along the chain named. This is one part of the list.

T1: UNK ZnF1-3 (human, UniProt Q9C0B0 31-174)
T1 sequence: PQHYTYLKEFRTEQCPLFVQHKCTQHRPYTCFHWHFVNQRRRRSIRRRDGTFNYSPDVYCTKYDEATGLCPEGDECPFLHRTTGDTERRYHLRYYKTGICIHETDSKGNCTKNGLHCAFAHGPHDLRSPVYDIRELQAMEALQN

B1: 102332062_102332290_2134_CDS_ENSMUSG00000023050_ENSMUST00000169377|mouse|control|control (ssRNA)
RNA: GGGAGUUCUACAGUCCGACGAUCUGAAGGGGGGCCCUUAGGACACCCAGGAAGCCCCACCCCACUUAGGGCUGCAUCUAGUUUAGGUAGCAACGACUCUGUCUUGAGAAUAUCUGGCCUUUUGCUGUGGGGCGACAGUUUCUGCAACAGAGGAUUGAGCAUCA
B2: 52344032_52344152_385_CDS_ENSG00000078618_ENST00000352171|human|control|control (ssRNA)
RNA: GGGAGUUCUACAGUCCGACGAUCUUCAUCCGCUCCUAGACGGGCAACCCGGCUGUUCUCGCCCAGAUCCUGUCCAUUGGGCUGCAGGUCAGGGCAGCUGCAGGUAGACUUCGCCUUGUUCCUUCCAGGCAUGGCCAGAAUAGGCAACAGAGGAUUGAGCAUCA
B3: 10163011_10163340_3299_CDS_ENSMUSG00000067851_ENSMUST00000088615|mouse|control|control (ssRNA)
RNA: GGGAGUUCUACAGUCCGACGAUCCACUCCAGUUCCUAUAAGUUGUGCCAGCUCUAACUGACUGAUGCACUUCAGGAUCUCAUGCCACGAAUUUCCUAAAUAAUUUCCAUCAGUGUGAGCCACCGUGAUGAGUGUUUUUAUUGUCAACAGAGGAUUGAGCAUCA
B4: 98536648_98538076_1479_CDS_ENSG00000057019_ENST00000326840|human|control|control (ssRNA)
RNA: GGGAGUUCUACAGUCCGACGAUCCCAUUUCUGCCCAUCAUCACUGUACAGGAUUCUGUAGGCAGACACAUAGUAAUUGUGCUCCACCAUGGUGGAUCCAGUGGUUAUAAUGCCUGUUAUUUUCUUUUCCUUAUUCAAAUCUAUCAACAGAGGAUUGAGCAUCA
B5: chr11:102546300:102546301:-_ENSMUSG00000020925_ENSMUST00000092569|mus_hu|motif|central (ssRNA)
RNA: GGGAGUUCUACAGUCCGACGAUCUGGGCCAAAUUCGGCCCGUGGGCAGUAGUUUGCCAACCCCUGGUAUAAAAUAUCGGCUUUGUCUUGUCAGAGAAAUUGCUGUCCUUAGGCUUCUAGACAAUCUGCUGCCUGAAGUCAAGUCAACAGAGGAUUGAGCAUCA
B6: 57178102_57183052_1624_CDS_ENSMUSG00000022749_ENSMUST00000023431|mouse|control|control (ssRNA)
RNA: GGGAGUUCUACAGUCCGACGAUCCUUGCCCACUCUGUCGCUGCUGCUCACGUGCCGGUCCACAGGAGUCGACGAGUUCUCAAUAAAGCUGAUGACCUUUUCCCUAACGGUAACGGAUUUUGUCUUUAGAGCCACAGUCAUUUUCAACAGAGGAUUGAGCAUCA
B7: chr10:85910540:85910541:+_ENSG00000165678_ENST00000372134|perfect_dup|FALSE|FALSE (ssRNA)
RNA: GGGAGUUCUACAGUCCGACGAUCUUCUGCACGCUUGAUUACUUUCUGGGUAUCAUACAGAAGGAACAUGCUGAAAAGAACUAAUCCACCGUACAUUGCCACUGAGUAAAGAGUGGCACCAGCCACGGUGGUAGGUGGAAGAAACAACAGAGGAUUGAGCAUCA
B8: chr7:56126341:56126342:+_ENSG00000146731_ENST00000540286|hu_mus|hu_hu_hu_mus_True|38_88 (ssRNA)
RNA: GGGAGUUCUACAGUCCGACGAUCCAUGUUUCUCCUCUUGGCUCUGCGCAGAGCAACGAUCCCUUCUUUCGCAAGGGCAUCUAAGGAAAAGGGGUCAAUUCCCUUUUGAUUAAUAACGACAAAUCCUUUAUCUGAGUCACCACACAACAGAGGAUUGAGCAUCA
B9: chr7:56126341:56126342:+_ENSG00000146731_ENST00000540286|hu_mus|hu_hu_hu_mus_True|38_68 (ssRNA)
RNA: B8 RNA with A54U, C69U, C71A, G75A
B10: 36889487_36891479_500_CDS_ENSMUSG00000034243_ENSMUST00000039855|mouse|control|control (ssRNA)
RNA: GGGAGUUCUACAGUCCGACGAUCUUCCAUCUCUGCAGAACUCUUAUCCAACUGCGAGGCUUGUUCUGAUUGGUCAAGCUGGGCUUGCAAACUACUAAUUAAUUUCUCCUUUUCCUGGAGUUCAUGUUUUAUUUUUUCUAUUUCCAACAGAGGAUUGAGCAUCA
B11: chr11:29096238:29096239:+_ENSMUSG00000020463_ENSMUST00000020755|mus_mus|FALSE|FALSE (ssRNA)
RNA: GGGAGUUCUACAGUCCGACGAUCUUGCAAGUCAUCCAUGCCCAUUACAAUUUCAAGAGCUGGAAGAAUUCCCAAUUUUGCUAAGGUUUUGAAAAAAGCAUCCCUGUUCUGAGGUUGCAAUGUCUGAGAAAAUGCACAAAAUUCCAACAGAGGAUUGAGCAUCA
B12: chr18:34481789:34481790:+_ENSMUSG00000005871_ENSMUST00000115781|mus_mus|motif|central (ssRNA)
RNA: GGGAGUUCUACAGUCCGACGAUCAACAAGUGAACAGAAGUAUAGAGAAAAAUUAUCCUGAAUAUCAGAGGAAAGAAAGUCGGUUUAGCACCAAGAACAGCAUUAUACACAGAACAUACAGUCGGAAAGAUGCAUCAAUGGCCUCAACAGAGGAUUGAGCAUCA
B13: chr7:54823571:54823572:-_ENSG00000132432_ENST00000352861|hu_mus|hu_hu_hu_mus_False|28_88 (ssRNA)
RNA: GGGAGUUCUACAGUCCGACGAUCUCCCAUGAUAGCAAAUCCUAUAGCUGUUGCCAUGGCAAUCUUCUGGAAUUCUUUUCUGUCGGGUUUGGUGCAUCUUUUAACCAGCCGAAUGGAGUCCUUUACAAACUGCCGGCUGGGCUCCAACAGAGGAUUGAGCAUCA
B14: chr3:87781927:87781928:+_ENSMUSG00000004891_ENSMUST00000090973|mus_mus|FALSE|FALSE (ssRNA)
RNA: GGGAGUUCUACAGUCCGACGAUCCUGCUCCCUCUCCGGGCCCUCUUCCACUUCCAGGCACUGCUGACUGUCCUCCACCCCUCCUGGUGAUUCCACAGUCUCUGGGUUCCACUUGCCCAGAGAUCUCAGUUCUUGACUCUCCCUCAACAGAGGAUUGAGCAUCA
B15: chr18:5290039:5290040:-_ENSG00000198081_ENST00000357006|hu_hu|motif|central (ssRNA)
RNA: GGGAGUUCUACAGUCCGACGAUCCUAGGAAAUCUUGGGAUUGUUACACAUGUAAAAAACCUUAUCUCUGAGAGCCUUUUCGGUUCUUCUUACCACAGGUCCACUCACAAAUCGCAGCUGGUAUGGACUGGUACUGCCCCAAAUCAACAGAGGAUUGAGCAUCA
B16: chr2:48026839:48026840:+_ENSG00000116062_ENST00000540021|hu_hu|hu_hu_hu_mus_False|1_98 (ssRNA)
RNA: GGGAGUUCUACAGUCCGACGAUCAUAGUGAGCCACUAGAGUCCUAAAUCUGGAACAGUGGCGGUCAUCCGAAAACUGGCCGAUGAAAAACUUGCCCAGUGAAGUGUCCACAAAGCAAACACCAUACACACGAGUGUGGCCAGACAACAGAGGAUUGAGCAUCA
B17: chr22:19452774:19452775:-_ENSG00000070010_ENST00000399523|hu_hu|hu_hu_hu_mus_False|78_88 (ssRNA)
RNA: GGGAGUUCUACAGUCCGACGAUCCUUCUCAUUGUAGUUGAUAGCAAUCACAUCCCCGGUGGUCAGACAGGCGAAGUUUCUCAAUGCAUUUUCUAAUACCGCUUUAGGGUUGGUAAUAUCCAGGAAGUCUGGGCUCUGAGGCUGCAACAGAGGAUUGAGCAUCA
B18: chr15:76588000:76588001:-_ENSG00000140374_ENST00000560595|hu_mus|motif|central (ssRNA)
RNA: GGGAGUUCUACAGUCCGACGAUCGGACACUUCACCUCCAAGACGUCCAGCUGCAGUGAUAGUAUUUAGAGUAAUGGGUGCGGGGGAAUCAUUUGCAUGCUCAGCUAUUACCAAGGUACUCUGAAAACGGAGCAAUGAGGCCGCCAACAGAGGAUUGAGCAUCA
B19: chr6:41757443:41757444:+_ENSG00000214736_ENST00000398881|hu_mus|hu_hu_hu_mus_False|48_68 (ssRNA)
RNA: GGGAGUUCUACAGUCCGACGAUCGAACCGUGCAGAGGCAACAUCUCAGCCGACACUGGGGGAUGGGGGAACAAAAGGGGGGGGUUCAGGGAAGGGGAGGGAGUCAACUUCAGCUGCCACUCAGGUAGGAUCUUGUGGUCACAGCAACAGAGGAUUGAGCAUCA
B20: chrX:71549400:71549401:+_ENSMUSG00000019087_ENSMUST00000019231|mus_hu|mus_mus_mus_hu_False|1_8 (ssRNA)
RNA: GGGAGUUCUACAGUCCGACGAUCGCAGUAGGAAGAGGGAAGCUCUUCAGUCCAGUGCGCUGCAGGGUGGGAAAGCAACAACACGGACACCGUCCCACCCUCAACCCCCCCACUGGCACAGGGUCACAUCUGGGUCAAAGUGAUCAACAGAGGAUUGAGCAUCA
B21: chr11:95591783:95591784:-_ENSG00000087053_ENST00000352297|hu_mus|FALSE|FALSE (ssRNA)
RNA: GGGAGUUCUACAGUCCGACGAUCUCUCAAAUAUGGAUCUUCUUGUUCGCCCCUCCGGUUUAUGAGCAAAUCGCAAGUUCCUGAUAUCCUUGCACACAGUUUCCAGGCCAUAGGAGUUUUCACCUCGGCUAGAUGCACCACCAACAACAGAGGAUUGAGCAUCA
B22: chr1:122009976:122009977:-_ENSMUSG00000026385_ENSMUST00000027634|mus_mus|FALSE|FALSE (ssRNA)
RNA: GGGAGUUCUACAGUCCGACGAUCAAUUGAUUGUAGGUAAAAACUACAGAGGGAGGAGGAGCAGAGGUUAACGCUGGCCCUAAUGUAUCACAGCCAUAUCAUCUACAUUAGAAAAAACCAAGGCAUUAUGUCCUCACAGGUCACCAACAGAGGAUUGAGCAUCA

Target: T1, UNK ZnF1-3
Assay: nsRBNS (natural sequence RNA bind-n-seq); RBNS binding buffer (assumed for nsRBNS): 25 mM Tris pH 7.5, 150 mM KCl, 3 mM MgCl2, 0.01% Triton X-100, 500 ug/ml BSA, 20 U/ml SUPERase-In, 4 C; UNK is unkempt and MSI1 is Musashi-1; names of the RNAs are library labels; protein concentration not given here; high values mean tight binding

Binder	binding signal [enrichment R]
B1	1.03
B2	0.607
B3	0.897
B4	0.726
B5	0.686
B6	0.923
B7	1.38
B8	1.11
B9	1.58
B10	0.576
B11	1.24
B12	2.01
B13	0.74
B14	0.971
B15	0.93
B16	0.947
B17	0.971
B18	1.59
B19	2.26
B20	1.17
B21	1.04
B22	2.37
